From ChEMBL document CHEMBL4888484, “Replenishing the malaria drug discovery pipeline: Screening and hit evaluation of the MMV Hit Generation Library 1 (HGL1) against asexual blood stage Plasmodium falciparum ,using a nano luciferase reporter read-out” (2022)
Among all 150,000 compounds or so, about 540 (0.36%) showed an effect of 50% or more. The list shows a part of the results.

These compounds were tested on Plasmodium falciparum (assay: Primary screen in NF54 nanoGlo assay, in single point, at 2uM, 72h; a lower Z score goes with more inhibition). Conditions: timepoint 72 hour.
Format: functional, Erythrocyte
For `CCOc1ccc(S(=O)(=O)Cc2cc(C)no2)cc1`, the “% Inhibition” value was -3% and the Z score was 0.57.
`O=C(c1cnn2c1CCCC2)N1CCN(S(=O)(=O)c2cccc(F)c2)CC1` was tested, and the “% Inhibition” value was 0% and the Z score was 0.04.
With `CC(=O)N[C@H]1CCCN(C2CCN(c3ccc(F)c(F)c3)CC2)C1` the “% Inhibition” value was -8% and the Z score was 1.54.
For `Cc1ccc(N[C@@](C)(C(=O)N(C)Cc2cscn2)c2ccccc2)cc1`, the “% Inhibition” value was -5% and the Z score was 0.61.
For `CN1C(=O)C(c2c[nH]c3ccc(Br)cc23)N(C)C(=O)C1c1c[nH]c2ccc(Br)cc12` (stereo not given), the “% Inhibition” value was -17% and the Z score was 2.03.
`CO[C@H]1C[C@@H]1C(=O)N1CCn2c(cnc2C(F)(F)F)C1` was tested, and the “% Inhibition” value was 3% and the Z score was -0.26.
`Cn1cc(-c2nc([C@@H]3COCCN3Cc3ccc(F)cc3)no2)cn1` was tested, and the “% Inhibition” value was 5% and the Z score was -0.69.
`COCCOc1nc(-c2cccs2)n(-c2ccc(NC(=O)c3ccc(F)cc3)cc2)n1` was tested, and the “% Inhibition” value was -6% and the Z score was 0.88.
In the case of `Cc1c([C@H]2CC(=O)Nc3n[nH]c(C4CCC4)c32)c(=O)n(-c2ccccc2)n1C`, the “% Inhibition” value is reported as -12% and the Z score is reported as 2.51.
For `CO[C@H]1C[C@@H](O)C12CCN(C(=O)Cc1ccc(CO)cc1)CC2`, the “% Inhibition” value was -23% and the Z score was 2.7.
With `O=C(CN1CCOCC1)N1CCN(C(=O)Nc2cccc3ccccc23)CC1` the “% Inhibition” value was -3% and the Z score was 0.5.
For `CC(C)n1ccc(CC(=O)N2CCCC[C@@H]2CS(C)(=O)=O)n1`, the “% Inhibition” value was -1% and the Z score was 0.08.
`CCN1CCN(C(=O)[C@H]2CCc3ncc(-c4ccc(OC)cc4)n3C2)CC1` was tested, and the “% Inhibition” value was -7% and the Z score was 1.3.
In the case of `CCC[C@]1(CO)CCCN1C(=O)c1ccc(S(=O)(=O)NC2CC2)cc1`, the “% Inhibition” value is reported as -11% and the Z score is reported as 1.59.
`CN(C)S(=O)(=O)CCN1CC(c2ccccc2)(c2ccccc2)CCC1=O` was tested, and the “% Inhibition” value was -13% and the Z score was 1.23.
In the case of `CC1CCN(C(=O)NCc2nccs2)C(C)C1` (stereo not given), the “% Inhibition” value is reported as -8% and the Z score is reported as 0.89.
In the case of `Cc1c(Cl)cccc1S(=O)(=O)N1C[C@H]2CC[C@@H](C1)N(C)C2=O`, the “% Inhibition” value is reported as 4% and the Z score is reported as -0.58.
In the case of `COc1ccc(CN2CCN3CCCC3C2C)c(OC)c1OC` (stereo not given), the “% Inhibition” value is reported as 2% and the Z score is reported as -0.37.
`Cc1cnccc1CN1CCC(n2cc(Cl)cn2)CC1` was tested, and the “% Inhibition” value was -3% and the Z score was 0.57.
`CCCN1C(=O)c2cc(C(=O)NCc3cc(Br)ccc3OC)nn2C[C@@]1(C)C(=O)NC1CCCC1` was tested, and the “% Inhibition” value was 14% and the Z score was -1.67.
In the case of `CC(C)(C)c1cc(CNC(=O)[C@@H]2CCC(=O)NC(=O)N2)[nH]n1`, the “% Inhibition” value is reported as -13% and the Z score is reported as 1.95.
With `CCCn1nnnc1Cn1ncc2ccccc2c1=O` the “% Inhibition” value was 36% and the Z score was -4.79.
With `Cc1noc([C@@H]2CCCCCN2C(=O)NCCc2ccccc2)n1` the “% Inhibition” value was -3% and the Z score was 0.51.
In the case of `O=C(O)c1cccc(CN2CCOCC2C2CCCO2)c1Cl` (stereo not given), the “% Inhibition” value is reported as -5% and the Z score is reported as 0.88.
`COc1ncncc1NC(=O)N1CC[C@@H](C(F)(F)F)C2(CCOCC2)C1` was tested, and the “% Inhibition” value was -4% and the Z score was 0.77.
`OCCn1cc(Nc2ccc3nnc(-c4cc(Cl)cc(Cl)c4)n3n2)cn1` was tested, and the “% Inhibition” value was 15% and the Z score was -1.91.
For `CC1CN(C(=O)c2nc(-c3ccccc3)cs2)CC[S+]([O-])C1` (stereo not given), the “% Inhibition” value was -7% and the Z score was 1.29.
With `CCc1nc([C@@H]2CCCN2c2ncc(C#N)cc2Cl)no1` the “% Inhibition” value was -4% and the Z score was 0.71.
`Cc1ccccc1CNC(=O)N1CCCC[C@@H]1CN1CCCC1` was tested, and the “% Inhibition” value was -9% and the Z score was 1.77.
For `CC(=O)N(C)c1cccc(NC(=O)N2CC(C)C2c2ccccc2)c1` (stereo not given), the “% Inhibition” value was -4% and the Z score was 0.43.
With `COc1ccc(Oc2nccc(-c3ccccc3)c2C#N)cc1` the “% Inhibition” value was -6% and the Z score was 0.71.
With `CN1CCC(N(CCc2ccccc2)C(=O)c2cn3cccnc3n2)CC1` the “% Inhibition” value was 0% and the Z score was 0.07.
For `CN(C(=O)CCc1ccco1)C1CCCC1`, the “% Inhibition” value was -4% and the Z score was 0.56.
In the case of `CCOC(=O)[C@H]1CCCN(C(=O)c2cc(-c3cccc(OC)c3)n3nc(-c4ccccc4)cc3n2)C1`, the “% Inhibition” value is reported as 10% and the Z score is reported as -1.86.
In the case of `COc1ccc(C2=[N+]([O-])C(C)(C)C(c3ccccc3)=N2)cc1`, the “% Inhibition” value is reported as -10% and the Z score is reported as 1.95.
With `CCOC(=O)N1CCC(NC(=O)c2cc(C(=O)Nc3ccc(C)c(F)c3)ccc2CO)CC1` the “% Inhibition” value was -7% and the Z score was 1.08.
For `COCCC1CCN(C(=O)CNC(=O)c2ccccc2C)CC1`, the “% Inhibition” value was -14% and the Z score was 2.76.
In the case of `CN(Cc1ccn(C)c(=O)c1)Cc1ccccc1Br`, the “% Inhibition” value is reported as -8% and the Z score is reported as 1.2.
With `CC(C)c1nnc(Cn2c(=O)ccn2-c2ccccn2)s1` the “% Inhibition” value was -5% and the Z score was 0.65.
`OC1CN(c2nnc(-c3ccccc3)s2)C1` was tested, and the “% Inhibition” value was -23% and the Z score was 2.65.
For `COC(=O)c1ccc(CN2CCN(c3cnn4c(C5CC5)nnc4c3)CC2)cc1`, the “% Inhibition” value was -6% and the Z score was 0.66.
In the case of `CCCCn1nc(CC(C)C)nc1[C@@H]1CCCN1C`, the “% Inhibition” value is reported as -5% and the Z score is reported as 1.
With `Cc1nnc2c(=O)n(CC(=O)N[C@@H](C)c3ccc(F)cc3)c3cccnc3n12` the “% Inhibition” value was -13% and the Z score was 1.7.
In the case of `CCc1cnc(CN(C)C(=O)c2ncoc2C)s1`, the “% Inhibition” value is reported as 0% and the Z score is reported as 0.05.
With `CC(C)n1ccc(CN2CCC(S(N)(=O)=O)CC2)n1` the “% Inhibition” value was 1% and the Z score was -0.14.
`NS(=O)(=O)Cc1cc(Cl)cc(Cl)c1` was tested, and the “% Inhibition” value was -9% and the Z score was 0.88.
`N#CCCN(CCC(F)(F)F)S(=O)(=O)c1cncc(Cl)c1` was tested, and the “% Inhibition” value was 5% and the Z score was -0.66.
`COc1ccc([C@@H]2CCCN2C(=O)c2cccnc2O)cc1OC` was tested, and the “% Inhibition” value was -9% and the Z score was 0.79.
For `COc1ccc(NC(=O)N2C[C@@H]3C[C@H](NC(=O)c4cccs4)[C@H]2C3)c(C)c1`, the “% Inhibition” value was 31% and the Z score was -3.55.
For `COCCNc1c(C#N)c2c(c3nncn13)CN(C(C)C)CC2`, the “% Inhibition” value was -13% and the Z score was 1.93.
In the case of `Cc1cc(F)cc(NC(=O)C(=O)Nc2ccnn2C(C)C)c1`, the “% Inhibition” value is reported as 6% and the Z score is reported as -1.12.
`Cc1nc(CCNC(=O)[C@H]2CC(=O)N(C)C2)cs1` was tested, and the “% Inhibition” value was 5% and the Z score was -0.64.
With `CN(C(=O)Cn1cc(-c2ccc(Cl)cc2)c(N2CCOCC2)n1)c1ccccc1` the “% Inhibition” value was -14% and the Z score was 1.6.
For `CCN(CC)[C@H](CNC(=O)CCc1ccc2c(c1)OCCO2)Cc1ccccc1`, the “% Inhibition” value was 4% and the Z score was -0.6.
`COCC[C@H]1CCOC2(CCN(C(=O)COc3ccccc3)CC2)C1` was tested, and the “% Inhibition” value was 3% and the Z score was -0.46.
With `Cc1ccc(-c2nccn2CCS(=O)(=O)N(C)C)c2cccnc12` the “% Inhibition” value was -17% and the Z score was 2.58.
For `CC(NC(=O)CCN1C(=O)CCC1=O)C1CCCO1` (stereo not given), the “% Inhibition” value was 0% and the Z score was -0.03.
With `COc1ccc2[nH]cc(C(=O)CN3CCC4(CC3)OCCO4)c2c1` the “% Inhibition” value was -9% and the Z score was 1.08.
In the case of `COc1cccc([C@@H]2CCCCN2C(=O)c2cc(COc3ccc(C(C)=O)cc3)on2)c1`, the “% Inhibition” value is reported as -3% and the Z score is reported as 0.28.
In the case of `CC1(C)[C@H]2CC=C(CN3CCC(Cn4ccnc4)CC3)[C@@H]1C2`, the “% Inhibition” value is reported as 10% and the Z score is reported as -1.55.
With `Nc1nonc1-c1noc(N2CCCC2)n1` the “% Inhibition” value was -11% and the Z score was 2.05.
For `CC(C)(CNC(=O)C[C@H]1CCOC1)c1c(F)cccc1Cl`, the “% Inhibition” value was -22% and the Z score was 1.9.
With `CC(C)CC(=O)N[C@H]1CCC12CCOCC2` the “% Inhibition” value was 13% and the Z score was -1.72.
`Cc1nc(-n2nc(C)c(CC(=O)N3CCCC3)c2C)sc1C` was tested, and the “% Inhibition” value was 7% and the Z score was -0.85.
`CC(NCC1CCc2ccccc21)c1ncn(C)n1` (stereo not given) was tested, and the “% Inhibition” value was -12% and the Z score was 1.73.
For `CN1C(=O)NC2(CCN(CC#Cc3ccc(F)cc3)CC2)C1=O`, the “% Inhibition” value was -4% and the Z score was 0.58.
For `O=C(O)[C@H]1CCN(C(=O)CCCCc2nc3ccccc3s2)C1`, the “% Inhibition” value was 0% and the Z score was 0.02.
`Cc1cc(C(=O)N2Cc3ccccc3C2)cc(S(N)(=O)=O)c1C` was tested, and the “% Inhibition” value was -8% and the Z score was 0.96.
`Cc1noc(OCC(=O)c2ccc(F)c(C)c2)n1` was tested, and the “% Inhibition” value was -6% and the Z score was 0.92.
For `Cc1cnn(CCC(=O)Nc2ccc(OC3CCCCC3O)cc2)c1` (stereo not given), the “% Inhibition” value was -4% and the Z score was 0.75.
In the case of `CCOc1ncccc1C(=O)Nc1nc(C(C)(C)C)cc(C(C)(C)C)n1`, the “% Inhibition” value is reported as 20% and the Z score is reported as -2.24.
For `Cc1noc(C)c1CN(C)Cc1ccc(CN2CCCC2)s1`, the “% Inhibition” value was -2% and the Z score was 0.44.
For `Cc1cc(CNS(=O)(=O)CCOC(C)C)on1`, the “% Inhibition” value was 5% and the Z score was -0.72.
For `Cc1nc(C(F)(F)F)c(Cn2nc(C(C)(C)C)c(CCC#N)c2O)s1`, the “% Inhibition” value was -21% and the Z score was 2.48.
For `Cc1[nH]nc(-c2ccccc2Cl)c1NC(=O)CC1CCCC1`, the “% Inhibition” value was 1% and the Z score was -0.09.
`Cc1ccc(CNS(=O)(=O)c2cc(-c3nc(C)c(C(=O)N4CCCC4)s3)n(C)c2)cc1` was tested, and the “% Inhibition” value was 2% and the Z score was -0.29.
In the case of `CCOC1CC(N(C)S(=O)(=O)c2cn(C)nc2C2CCCC2)C1` (stereo not given), the “% Inhibition” value is reported as -6% and the Z score is reported as 1.12.
In the case of `Cc1c(Cl)cccc1NC(=O)[C@H]1CCCN(c2ccc3cc(S(=O)(=O)N4CCCC4)ccc3n2)C1`, the “% Inhibition” value is reported as -3% and the Z score is reported as 0.48.
With `CCCn1cc(C(=O)N2CCn3nc([C@@H](O)CO)cc3C2)c(C)n1` the “% Inhibition” value was -18% and the Z score was 3.2.
For `COC1(C)CC(N(C)C(=O)c2ccc(CN)cc2)C1(C)C` (stereo not given), the “% Inhibition” value was -15% and the Z score was 1.29.
For `CCS(=O)(=O)Nc1ccc(S(=O)(=O)N[C@@H](C)c2cncs2)cc1F`, the “% Inhibition” value was -39% and the Z score was 4.53.
`C[C@@H](Cn1cccn1)C(=O)N(C)Cc1ccoc1` was tested, and the “% Inhibition” value was -8% and the Z score was 1.11.
For `COc1ccc(S(=O)(=O)N2CCC3(CC2)Nc2ccc(C)c(C)c2-n2cccc23)cc1Cl`, the “% Inhibition” value was 2% and the Z score was -0.26.
With `CCn1ccnc(NCc2ccnc(NC)c2)c1=O` the “% Inhibition” value was -9% and the Z score was 1.74.
`O=C1c2ccc(Oc3cccc(Oc4ccc5c(c4)C(=O)N(c4ccccc4O)C5=O)c3)cc2C(=O)N1c1ccccc1O` was tested, and the “% Inhibition” value was 6% and the Z score was -0.8.
